Measurements reported in publication PMC4336329 (PLoS ONE, 2015).
Screen size: about 310,000 compounds; about 2,200 (0.71%) showed an effect of 50% or more. Effects have a minus sign here. The list shows a part of the results.

Molecular target: human ether-à-go-go-related gene (hERG) potassium channel (human, UniProt Q12809)
Assay: primary screen, population patch clamp on CHO cells stably expressing hERG

human ether-à-go-go-related gene (hERG) potassium channel, sequence (Q12809 whole entry, looked up): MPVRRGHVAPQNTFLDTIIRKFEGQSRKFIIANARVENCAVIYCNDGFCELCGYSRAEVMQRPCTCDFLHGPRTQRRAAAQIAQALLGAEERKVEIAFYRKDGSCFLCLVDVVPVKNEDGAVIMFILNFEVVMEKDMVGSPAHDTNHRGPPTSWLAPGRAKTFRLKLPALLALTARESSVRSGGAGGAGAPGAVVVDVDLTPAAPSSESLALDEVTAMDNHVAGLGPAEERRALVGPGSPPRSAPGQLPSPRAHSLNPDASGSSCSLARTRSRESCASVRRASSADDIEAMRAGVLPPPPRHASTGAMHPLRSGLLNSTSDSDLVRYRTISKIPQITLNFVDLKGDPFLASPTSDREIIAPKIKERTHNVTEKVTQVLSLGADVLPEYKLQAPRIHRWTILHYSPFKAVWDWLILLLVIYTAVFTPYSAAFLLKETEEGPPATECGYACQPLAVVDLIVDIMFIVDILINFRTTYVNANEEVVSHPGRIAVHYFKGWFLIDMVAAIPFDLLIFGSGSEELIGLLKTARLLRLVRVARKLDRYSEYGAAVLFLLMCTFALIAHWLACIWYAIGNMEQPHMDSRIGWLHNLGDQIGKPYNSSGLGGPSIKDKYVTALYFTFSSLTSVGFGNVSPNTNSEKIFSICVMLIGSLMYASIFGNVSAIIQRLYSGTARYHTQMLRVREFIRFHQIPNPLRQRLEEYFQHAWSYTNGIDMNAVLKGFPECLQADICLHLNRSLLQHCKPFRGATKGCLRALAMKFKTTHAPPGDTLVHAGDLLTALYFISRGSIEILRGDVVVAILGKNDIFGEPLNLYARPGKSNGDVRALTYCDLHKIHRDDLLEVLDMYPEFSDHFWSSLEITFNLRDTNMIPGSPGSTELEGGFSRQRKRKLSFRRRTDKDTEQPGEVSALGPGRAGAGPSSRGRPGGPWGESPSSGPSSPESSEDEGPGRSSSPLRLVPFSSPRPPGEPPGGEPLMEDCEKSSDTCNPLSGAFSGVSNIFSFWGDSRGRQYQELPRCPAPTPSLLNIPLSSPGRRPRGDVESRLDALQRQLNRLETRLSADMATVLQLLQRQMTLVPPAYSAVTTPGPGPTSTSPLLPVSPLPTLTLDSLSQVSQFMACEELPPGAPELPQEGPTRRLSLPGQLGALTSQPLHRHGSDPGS

| SMILES | hERG current change (%, negative = inhibition) at 1uM [%] |
| --- | --- |
| COc1cscc1C(N)=O | 12.4 |
| N#Cc1ccccc1Cn1c(=O)n(C2CCCC2)c(=O)c2ccccc21 | 6.75 |
| Cl.O=S1(=O)N=C(N(CCO)/N=C/c2ccncc2)c2ccccc21 | 7.58 |
| O=C(CCN1C(=O)COc2ccccc21)NCc1cccs1 | 9.98 |
| COc1cccc(/C=N/n2c(C3CCCCC3)n[nH]c2=S)c1 | 6.99 |
| Cc1ccccc1CC1(CO)CCCN(Cc2cn[nH]c2-c2ccccc2)C1 (centres unmarked) | 7.9 |
| CC(=O)Nc1ccc(S(=O)(=O)NNC(=O)COc2ccc(C(C)(C)C)cc2)cc1 | 10.2 |
| O=C(Nc1ccc(Cl)c(Cl)c1)Nc1ccc(Br)cc1F | 16.9 |
| COC(=O)[C@H]1[C@H]2C[C@@H]3c4[nH]c5cc(OC)ccc5c4CCN3C[C@H]2C[C@@H](OC(=O)c2cc(OC)c(OC)c(OC)c2)[C@@H]1OC | 4.3 |
| COc1ccc(CC(=O)N/N=C/c2ccc(-c3ccc(F)cc3)o2)cc1OC | -2.77 |
| C=CCNC(=O)/C=C/c1cccs1 | 14.9 |
| Cc1ccccc1CN1CCCC(C(=O)Nc2ccccc2Oc2cccnc2)C1 (centres unmarked) | 10.6 |
| Cc1ccc(C(=O)N2CCC(C)CC2)cc1C | 11.5 |
| C#CCCOC(=O)Nc1ccccc1 | 7.55 |
| O=C(Nc1ccc(Br)cn1)c1ccc([N+](=O)[O-])o1 | 7.5 |
| Cc1ccccc1NC(=O)COC(=O)c1cc(=O)c2ccccc2o1 | -29.9 |
| O=C(NCCCN1CCOCC1)c1cccc(S(=O)(=O)NCc2ccccc2)c1 | -8.1 |
| COc1ccc(F)cc1C(=O)C1CCCN(C(=O)CCc2ccccn2)C1 (centres unmarked) | 10.7 |
| CC1CCCN(C(=O)COC(=O)C2CCN(S(=O)(=O)c3c(Cl)cccc3Cl)CC2)C1 (centres unmarked) | 0.009 |
| CCCC(=O)NC(c1ccc2c(c1)OCO2)c1cc(Cl)c2cccnc2c1O (centres unmarked) | 1.99 |
| Cc1ccc(C)c(S(=O)(=O)N2CCN(C(=O)c3ccc(OCc4c(C)noc4C)cc3)CC2)c1 | 0.112 |
| Nc1ccc(C(=O)N/N=C/c2cn(Cc3ccc(F)cc3)c3ccccc23)cc1 | 8.44 |

| SMILES | hERG current change (%, negative = inhibition) at 1uM [%] |
| --- | --- |
| CC(C)Cn1cnc2c1c(=O)n(CC(=O)NC(=O)NC(C)(C)C)c(=O)n2Cc1ccccc1 | 10.7 |
| CCOC(=O)N1CCN(C(=O)C2CCN(c3nnc(-n4cccc4)s3)CC2)CC1 | -35.5 |
| Oc1c(C(c2ccccc2)N2CCN(Cc3ccccc3)CC2)sc2ncnn12 (centres unmarked) | -20.2 |
| COCCN(C(=O)CNC(=O)c1ccco1)C(C(=O)NC1CCCC1)c1cccs1 (centres unmarked) | 17.1 |
| CCC(OC(C)=O)c1cc2c(cc1[N+](=O)[O-])OCCO2 (centres unmarked) | 9.32 |
| Clc1ccc(-c2nnc(C3CCCCC3)o2)cc1 | 11.6 |
| CC1(C)CC(=O)N(CC(=O)NCc2ccccc2)c2ccccc2S1(=O)=O | 8.03 |
| Cc1c(Cl)cccc1NC(=O)Nc1cc(C(C)(C)C)on1 | 17.3 |
| COc1ccc(NC(=O)COc2ccc(/C=N/n3c(C)nnc3C)cc2OC)cc1 | 5.6 |
| CCCNc1nc(C)cc(-c2cc(C(=O)NC3CCCC3)on2)n1 | 19.3 |
| O=C(C1CCN(S(=O)(=O)c2cccc3nsnc23)CC1)N1CCc2ccccc21 | 7.27 |
| CCNC(=O)NC(=O)COC(=O)CCCSc1nc2ccccc2s1 | 11.8 |
| Cc1cccc(CSC2=CS(=O)(=O)c3ccccc3N2)c1 | -0.533 |
| C(=N\Nc1nc(N2CCCC2)nc(N2CCCC2)n1)/c1ccccc1OCc1ccccc1 | 17.6 |
| COCCN1CCN(Cc2cn[nH]c2-c2cc3ccccc3o2)CC1 | 11.2 |
| O=C(CCN1N=C(c2ccccc2)CCC1=O)NCC1CCCO1 (centres unmarked) | 20.2 |
| CC1=C/C(=C(/c2ccc(O)c(C)c2)c2ccccc2S(=O)(=O)[O-])C=CC1=O.[Na+] | 12.9 |
| O=C(CCn1c2c(c3ccccc31)CCCC2)NNC(=O)c1ccc(Cl)c([N+](=O)[O-])c1 | -5.09 |
| Cc1cccc(C(=O)Nc2ccc(C(=O)N/N=C/c3cccnc3)cc2)c1 | 10.6 |
| CCOCC(=O)N1CCN(c2ccc(F)cc2)CC1 | 13.8 |
| O=C(O)c1ccccc1/C=N/Nc1ccc(S(=O)(=O)N2CCOCC2)cc1[N+](=O)[O-] | 7.69 |
| O=C1CSC(c2ccc(Cl)cc2)N1c1cccnc1 (centres unmarked) | 11.6 |
